# Results taken from the supplement of paper PMC8728848.
# The other results are listed elsewhere or left out.
# B1: LSectin (Mus musculus), Q8BNX1 (protein)
# chain: MNTGEYNKLGSAIEEVSRGQLGRWECYKQRLFFLVLALLVATVLWALILSTLLSSASSKLRVLLSHQDLLRTNASEQKMTLSSLKDDIGACRNCCSVTKAQLQTTLAEFKDIQAKLMEQESILKELQERVTQDLAKASRDRENIRSELFQALEAVKRQNSSCEQCPPSWLPFQGSCYYFSETQATWDTAQSYCGGQGAHLVIVRGLNEQGFLSQHTRGRGYWLGLRAVRHLNKIQGYRWVDGASLNFSHWNSGEPNDSRGHEDCIMMLHSGLWNDAPCTNERDGWICEKRSSCY
# Columns and labels:
# Assay in all cases: glycan array binding signal (z-score within array); higher = stronger binding
# Settings in all cases: glycan notation: IUPAC condensed, linker removed
# [1] = biological target: Fuc(a1-3)[Gal(b1-4)]GlcNAc(b1-6)[Gal(b1-3)GlcNAc(b1-3)]Gal(b1-4)Glc
# Procedure, shortened: (§1)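 Negative Z-scores can be read as non-binding. The Z-score is calculated within each array and then averaged across arrays of one protein sequence at different concentrations or buffers and across linkers. Arrays, 3228 in all, were curated from the Consortium for Functional Glycomics database and kept only where the protein sequence was available.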
# [2] = biological target: Fuc(a1-3)[Gal(b1-4)]GlcNAc6S
# Procedure, shortened: as §1
# [3] = biological target: Fuc(a1-3)[Gal3S(b1-4)]Glc6S
# Procedure, shortened: as §1
# [4] = biological target: Fuc(a1-3)[Gal3S(b1-4)]GlcNAc
# Procedure, shortened: as §1
# [5] = biological target: Fuc(a1-3)[Gal3S(b1-4)]GlcNAc6S
# Procedure, shortened: as §1
# [6] = biological target: Fuc(a1-3)[GalNAc(b1-4)]GlcNAc
# Procedure, shortened: as §1
# Fuc(a1-4)GlcNAc = biological target: Fuc(a1-4)GlcNAc
# Procedure, shortened: as §1
# Fuc(b1-3)GlcNAc = biological target: Fuc(b1-3)GlcNAc
# Procedure, shortened: as §1
# Gal(a1-2)Gal = biological target: Gal(a1-2)Gal
# Procedure, shortened: as §1
# Gal(a1-3)Gal = biological target: Gal(a1-3)Gal
# Procedure, shortened: as §1
# Gal(a1-3)Gal(b1-3)GlcNAc = biological target: Gal(a1-3)Gal(b1-3)GlcNAc
# Procedure, shortened: as §1
# [7] = biological target: Gal(a1-3)Gal(b1-3)GlcNAc(b1-2)Man(a1-3)[Gal(a1-3)Gal(b1-3)GlcNAc(b1-2)Man(a1-6)]Man(b1-4)GlcNAc(b1-4)GlcNAc
# Procedure, shortened: as §1
# [8] = biological target: Gal(a1-3)Gal(b1-3)GlcNAc(b1-3)GalNAc
# Procedure, shortened: as §1
# [9] = biological target: Gal(a1-3)Gal(b1-3)[Fuc(a1-4)]GlcNAc(b1-2)Man(a1-3)[Gal(a1-3)Gal(b1-3)[Fuc(a1-4)]GlcNAc(b1-2)Man(a1-6)]Man(b1-4)GlcNAc(b1-4)GlcNAc
# Procedure, shortened: as §1
# Gal(a1-3)Gal(b1-4)Glc = biological target: Gal(a1-3)Gal(b1-4)Glc
# Procedure, shortened: as §1
# Gal(a1-3)Gal(b1-4)GlcNAc = biological target: Gal(a1-3)Gal(b1-4)GlcNAc
# Procedure, shortened: as §1
# [10] = biological target: Gal(a1-3)Gal(b1-4)GlcNAc(b1-3)GalNAc
# Procedure, shortened: as §1
# [11] = biological target: Gal(a1-3)Gal(b1-4)[Fuc(a1-3)]GlcNAc
# Procedure, shortened: as §1
# [12] = biological target: Gal(a1-3)Gal(b1-4)[Fuc(a1-3)]GlcNAc(b1-2)Man(a1-3)[Gal(a1-3)Gal(b1-4)[Fuc(a1-3)]GlcNAc(b1-2)Man(a1-6)]Man(b1-4)GlcNAc(b1-4)GlcNAc
# Procedure, shortened: as §1
# Gal(a1-3)GalNAc = biological target: Gal(a1-3)GalNAc
# Procedure, shortened: as §1
# [13] = biological target: Gal(a1-3)[Gal(a1-4)]Gal(b1-4)GlcNAc
# Procedure, shortened: as §1
# [14] = biological target: Gal(a1-4)Gal(b1-3)GlcNAc(b1-2)Man(a1-3)[Gal(a1-4)Gal(b1-3)GlcNAc(b1-2)Man(a1-6)]Man(b1-4)GlcNAc(b1-4)GlcNAc
# Procedure, shortened: as §1
# Gal(a1-4)Gal(b1-4)Glc = biological target: Gal(a1-4)Gal(b1-4)Glc
# Procedure, shortened: as §1
# Gal(a1-4)Gal(b1-4)GlcNAc = biological target: Gal(a1-4)Gal(b1-4)GlcNAc
# Procedure, shortened: as §1
# [15] = biological target: Gal(a1-4)Gal(b1-4)GlcNAc(b1-2)Man(a1-3)[Gal(a1-4)Gal(b1-4)GlcNAc(b1-2)Man(a1-6)]Man(b1-4)GlcNAc(b1-4)GlcNAc
# Procedure, shortened: as §1
# [16] = biological target: Gal(a1-4)Gal(b1-4)GlcNAc(b1-3)Gal(b1-4)Glc
# Procedure, shortened: as §1
# Gal(a1-4)GlcNAc = biological target: Gal(a1-4)GlcNAc
# Procedure, shortened: as §1
# Gal(a1-6)Glc = biological target: Gal(a1-6)Glc
# Procedure, shortened: as §1
# Gal(b1-2)Gal = biological target: Gal(b1-2)Gal
# Procedure, shortened: as §1
# Gal(b1-3)Gal = biological target: Gal(b1-3)Gal
# Procedure, shortened: as §1
# Gal(b1-3)Gal(b1-4)GlcNAc = biological target: Gal(b1-3)Gal(b1-4)GlcNAc
# Procedure, shortened: as §1
# [17] = biological target: Gal(b1-3)Gal(b1-4)GlcNAc(b1-2)Man(a1-3)[Gal(b1-3)Gal(b1-4)GlcNAc(b1-2)Man(a1-6)]Man(b1-4)GlcNAc(b1-4)GlcNAc
# Procedure, shortened: as §1
# Gal(b1-3)GalNAc = biological target: Gal(b1-3)GalNAc
# Procedure, shortened: as §1
# [18] = biological target: Gal(b1-3)GalNAc(a1-3)[Fuc(a1-2)]Gal(b1-4)Glc
# Procedure, shortened: as §1
# [19] = biological target: Gal(b1-3)GalNAc(a1-3)[Fuc(a1-2)]Gal(b1-4)GlcNAc
# Procedure, shortened: as §1
# [20] = biological target: Gal(b1-3)GalNAc(b1-3)Gal(a1-4)Gal(b1-4)Glc
# Procedure, shortened: as §1
# [21] = biological target: Gal(b1-3)GalNAc(b1-4)Gal(b1-4)Glc
# Procedure, shortened: as §1
binder,measurement,setting,value
B1,glycan array binding signal (z-score),[1],-0.184
same,glycan array binding signal (z-score),[2],-0.145
same,glycan array binding signal (z-score),[3],-0.015
same,glycan array binding signal (z-score),[4],-0.103
same,glycan array binding signal (z-score),[5],-0.143
same,glycan array binding signal (z-score),[6],-0.159
same,glycan array binding signal (z-score),Fuc(a1-4)GlcNAc,-0.185
same,glycan array binding signal (z-score),Fuc(b1-3)GlcNAc,-0.166
same,glycan array binding signal (z-score),Gal(a1-2)Gal,-0.145
same,glycan array binding signal (z-score),Gal(a1-3)Gal,-0.162
same,glycan array binding signal (z-score),Gal(a1-3)Gal(b1-3)GlcNAc,-0.189
same,glycan array binding signal (z-score),[7],-0.178
same,glycan array binding signal (z-score),[8],-0.184
same,glycan array binding signal (z-score),[9],-0.18
same,glycan array binding signal (z-score),Gal(a1-3)Gal(b1-4)Glc,-0.156
same,glycan array binding signal (z-score),Gal(a1-3)Gal(b1-4)GlcNAc,-0.186
same,glycan array binding signal (z-score),[10],-0.19
same,glycan array binding signal (z-score),[11],-0.171
same,glycan array binding signal (z-score),[12],-0.185
same,glycan array binding signal (z-score),Gal(a1-3)GalNAc,-0.147
same,glycan array binding signal (z-score),[13],-0.143
same,glycan array binding signal (z-score),[14],-0.154
same,glycan array binding signal (z-score),Gal(a1-4)Gal(b1-4)Glc,-0.176
same,glycan array binding signal (z-score),Gal(a1-4)Gal(b1-4)GlcNAc,-0.176
same,glycan array binding signal (z-score),[15],-0.18
same,glycan array binding signal (z-score),[16],-0.183
same,glycan array binding signal (z-score),Gal(a1-4)GlcNAc,-0.149
same,glycan array binding signal (z-score),Gal(a1-6)Glc,-0.184
same,glycan array binding signal (z-score),Gal(b1-2)Gal,-0.156
same,glycan array binding signal (z-score),Gal(b1-3)Gal,-0.161
same,glycan array binding signal (z-score),Gal(b1-3)Gal(b1-4)GlcNAc,-0.177
same,glycan array binding signal (z-score),[17],-0.148
same,glycan array binding signal (z-score),Gal(b1-3)GalNAc,-0.18
same,glycan array binding signal (z-score),[18],-0.188
same,glycan array binding signal (z-score),[19],-0.188
same,glycan array binding signal (z-score),[20],-0.187
same,glycan array binding signal (z-score),[21],-0.182
